The values that follow come from paper PMC4336329 (PLoS ONE, 2015).

Out of some 310,000 compounds screened, about 14,000 (4.5%) showed an effect of 50% or more. The effect is printed as a negative number. This is one part of the list.
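Also: peak tail current of the secondary pulse compared with the same well before compound.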

human ether-à-go-go-related gene (hERG) potassium channel, sequence (Q12809 whole entry, looked up): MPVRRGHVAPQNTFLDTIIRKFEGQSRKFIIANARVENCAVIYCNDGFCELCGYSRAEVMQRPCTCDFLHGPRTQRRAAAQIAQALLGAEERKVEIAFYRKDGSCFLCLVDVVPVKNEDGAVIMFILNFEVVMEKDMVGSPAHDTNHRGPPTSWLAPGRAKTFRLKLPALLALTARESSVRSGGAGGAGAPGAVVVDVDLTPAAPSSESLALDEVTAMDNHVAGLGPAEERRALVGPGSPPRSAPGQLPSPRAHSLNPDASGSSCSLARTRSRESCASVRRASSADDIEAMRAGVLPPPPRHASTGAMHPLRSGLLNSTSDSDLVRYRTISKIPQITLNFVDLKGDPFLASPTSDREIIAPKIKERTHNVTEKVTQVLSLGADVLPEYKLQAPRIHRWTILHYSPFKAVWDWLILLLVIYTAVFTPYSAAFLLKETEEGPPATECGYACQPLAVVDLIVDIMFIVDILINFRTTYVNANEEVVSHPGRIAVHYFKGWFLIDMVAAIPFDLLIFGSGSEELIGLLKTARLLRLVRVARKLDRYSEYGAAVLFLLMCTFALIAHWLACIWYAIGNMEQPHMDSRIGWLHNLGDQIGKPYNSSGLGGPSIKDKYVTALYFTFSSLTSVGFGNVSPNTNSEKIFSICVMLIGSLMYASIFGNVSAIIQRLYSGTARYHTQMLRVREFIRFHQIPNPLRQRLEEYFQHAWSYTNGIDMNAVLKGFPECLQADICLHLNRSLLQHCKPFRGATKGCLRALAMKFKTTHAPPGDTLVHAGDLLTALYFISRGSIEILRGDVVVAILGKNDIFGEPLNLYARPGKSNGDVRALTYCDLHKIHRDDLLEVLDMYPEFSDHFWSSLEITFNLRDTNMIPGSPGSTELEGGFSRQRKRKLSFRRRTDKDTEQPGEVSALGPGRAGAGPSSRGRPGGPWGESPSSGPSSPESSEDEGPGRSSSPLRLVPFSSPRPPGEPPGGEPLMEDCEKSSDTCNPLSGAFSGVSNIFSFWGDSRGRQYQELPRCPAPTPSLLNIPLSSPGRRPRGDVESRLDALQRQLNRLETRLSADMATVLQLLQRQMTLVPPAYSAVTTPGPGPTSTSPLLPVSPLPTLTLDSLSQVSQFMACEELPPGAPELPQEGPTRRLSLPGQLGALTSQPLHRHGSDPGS

This test addresses human ether-à-go-go-related gene (hERG) potassium channel (human, UniProt Q12809). The test is described as follows: primary screen, population patch clamp on CHO cells stably expressing hERG.
As for `CC(=O)c1sc2c(c1N)c(=O)[nH]c(=O)n2-c1ccccc1`, the “hERG current change (%, negative = inhibition) at 10uM” value came to 10.2%. As to `CCc1ccc(NC(=O)C(C)OC(=O)c2c(C)nn(Cc3ccccc3)c2Cl)cc1` (stereo not shown), the “hERG current change (%, negative = inhibition) at 10uM” value is on record as 2.72%.

Consider `Cc1cccc(-n2c(O)c(C=Nc3cccc(O)c3)c3ccccc3c2=O)n1`, for which the “hERG current change (%, negative = inhibition) at 10uM” value stood at 0.602%. As for `O=C(O)C1C2CCC(C2)C1C(=O)NCc1ccco1` (stereo not shown), the “hERG current change (%, negative = inhibition) at 10uM” value was -8.3%. For `COc1ccc(C(=O)Oc2ccc3c(c2)OCO3)cc1OC` the value was -1.19%; for `CN(C)S(=O)(=O)N(CC(=O)Nc1ccc(F)c(F)c1)c1ccccc1`, -35.4%. To `CC(c1ccncn1)N(C)Cc1nc(Cc2ccccc2F)no1` (stereo not shown) belongs 34.6%.

As to `COc1ccc2sc(C)nc2c1NC(C)=O`, the “hERG current change (%, negative = inhibition) at 10uM” value is recorded as 9.21%. To `CCOc1ccc(C2/C(=C(/O)c3ccc4c(c3)CC(C)O4)C(=O)C(=O)N2CC2CCCO2)cc1` (stereo not shown) belongs 13.4%; to `CC(C)C12CN3CC(C(C)C)(CN(C1)C31C(=O)Nc3ccccc31)C2=O` (stereo not shown), 12.7%; to `Cc1ccc(/C=N/n2c(C)nnc2C)cc1`, -17.2%. Turning to `Cc1ccc(SCc2ccc(C(=O)N3CCCC3)cc2)cc1`, the “hERG current change (%, negative = inhibition) at 10uM” value is on record as -30.1%. For `CCOc1ccccc1NC(=O)N1CCC(c2nc3ccccc3[nH]2)CC1` the value was -23.6%; for `CC(=O)N1CCc2c(sc(NC(=O)Cc3ccc(F)cc3)c2C#N)C1`, 13.6%; for `CCC(CO)Nc1ccc(-c2nn(C)c(=O)c3ccccc23)cc1[N+](=O)[O-]` (stereo not shown), -9.64%. Turning to `Fc1cccc(NC(=S)NCCN2CCOCC2)c1`, the “hERG current change (%, negative = inhibition) at 10uM” value is given as -1.66%. For `COc1ccc(CCCC(=O)NCc2ccccc2)cc1C`, the “hERG current change (%, negative = inhibition) at 10uM” value is reported as -3.49%. For the compound `CC1(C)CC(=O)C2=C(C1)N(c1ccc(F)cc1)C(=O)CC2c1cccnc1` (stereo not shown), the “hERG current change (%, negative = inhibition) at 10uM” value is 3.95%. For `Cc1ccc(C(O)(C(=O)NN(C(=O)c2ccccc2)c2ccccc2)c2ccc(C)cc2)cc1`, the “hERG current change (%, negative = inhibition) at 10uM” value turned out to be 10.5%. As for `Cc1ccc(C2=NN(C(=O)CCC(=O)O)C(c3cccc([N+](=O)[O-])c3)C2)cc1` (stereo not shown), the “hERG current change (%, negative = inhibition) at 10uM” value was determined as 11.9%. For `COC(=O)c1ccc(N2C(=O)CC(N(C)Cc3ccccc3)C2=O)cc1` (stereo not shown) the value was 10.3%; for `Cc1ccccc1S(=O)Cc1ccc(C(=O)NCCN2CCOCC2)o1` (stereo not shown), 26.2%; for `CC(=O)O[C@H]1CC[C@H]2[C@@H]3CCc4cc(O)ccc4[C@H]3CC[C@]12C`, -5.79%. On to `CCCCN(CCCNC(=O)C1CCN(S(=O)(=O)CC)CC1)c1ccccc1`, for which the “hERG current change (%, negative = inhibition) at 10uM” value is reported as -51.1%. To `O=C(N/N=C/c1cccc(OC(=O)c2ccc3c(c2)OCO3)c1)c1cncc(Br)c1` belongs 22.2%. To `Cn1c(SCC(O)c2ccccc2)nnc1-c1ccc2ccccc2c1` (stereo not shown) belongs -21.5%; to `CC1(C)CC(=O)C(N=Nc2ccc(Br)cc2)=C(O)C1`, 9.43%. To `CCn1c(=O)n(CC)c2cc(S(=O)(=O)N3CCOCC3)ccc21` belongs 2.39%. As to `O=C(Cn1nc(Br)nc1Br)c1ccccc1`, the “hERG current change (%, negative = inhibition) at 10uM” value came out at 4.41%. To `Cc1ccc(-c2csc(NC(=O)CCCc3cccs3)n2)cc1` belongs 5.65%; to `Br.COc1ccccc1Nc1nc(-c2cccc(N3C(=O)c4ccccc4C3=O)c2)cs1`, 26.4%.

Turning to `O=C(C1CCCN(Cc2cccc(Cl)c2)C1)N1CCCCC1.O=C(O)C(=O)O` (stereo not shown), the “hERG current change (%, negative = inhibition) at 10uM” value is -10.7%. To `O=C(c1ccccc1)N1CCCC(C(=O)N2CCCCCC2)C1` (stereo not shown) belongs 0.0243%; to `CCC(=O)N1CCc2cc(S(=O)(=O)N3CCCCC3CC)ccc21` (stereo not shown), 2.2%; to `Cc1cccc2nc(CNC(=O)C3CCC(=O)N(Cc4ccccc4F)C3)cn12` (stereo not shown), 2.82%. As to `O=C1NN(c2cccc(Br)c2)C(=O)/C1=C\c1ccc(N2CCOCC2)cc1`, the “hERG current change (%, negative = inhibition) at 10uM” value is on record as 25.7%. To `c1ccc(-c2nnc3n2-c2ccccc2SC3)cc1` belongs 8.11%. Consider `CCc1ccccc1N1C(=O)CC(Sc2nccc(C)n2)C1=O` (stereo not shown), for which the “hERG current change (%, negative = inhibition) at 10uM” value is listed as 8.46%. As to `O=C(c1ccc(Br)s1)N1CCN(Cc2ccc3c(c2)OCO3)CC1`, the “hERG current change (%, negative = inhibition) at 10uM” value is -36.3%. To `Cc1c(Cl)c(C(=O)N2CCCC2)nn1C` belongs 7.73%; to `Cc1ccccc1-n1nnnc1Sc1nnnn1-c1ccccc1`, -9.48%.

Consider `O=C(COC(=O)COc1ccccc1[N+](=O)[O-])NC1CCCCC1`, for which the “hERG current change (%, negative = inhibition) at 10uM” value is -23.7%. To `Cc1ccc2nc(-c3cccc(NS(C)(=O)=O)c3)cc(-c3ccccc3)c2c1` belongs 5.58%; to `CSc1ccc(/C=N/NC(=O)c2ccc(O)cc2)cc1`, -2.63%.

Take `CCSc1nc2ccc(C)cc2cc1C#N`: the “hERG current change (%, negative = inhibition) at 10uM” value is on record as 11.2%. For `O=C(Nc1ccc(S(=O)(=O)N2CCCCC2)cc1)c1ccc(F)cc1` the value was 4.57%; for `CC1=C(c2ccc(C)cc2)[N+](=O)C(C)(C)N1[O-]`, 17.6%. Regarding `CS(=O)(=O)N1CCCC(C(=O)Nc2cccc(F)c2)C1` (stereo not shown), the “hERG current change (%, negative = inhibition) at 10uM” value was 8.65%. On to `O=C(Nc1ccccc1C(=O)O)c1cccc(NS(=O)(=O)c2ccc(Br)cc2)c1`, for which the “hERG current change (%, negative = inhibition) at 10uM” value is recorded as 24.4%. As for `COc1cccc(OC)c1NC(=O)CN1CCC(NC(=O)c2cccc(F)c2)CC1`, the “hERG current change (%, negative = inhibition) at 10uM” value stood at 1.5%. For `COc1cc(CN2CCCC(C(=O)N3CCc4ccccc4C3)C2)cc(OC)c1OC` (stereo not shown) the value was -62%; for `Cc1ccc(S(=O)(=O)NCc2csc(C)n2)cc1`, 14.8%; for `CCN(CC)C(=O)c1cc(-c2ccc(Br)cc2)on1`, -8.06%. For `CC(C)(C)n1nnnc1C(c1cccnc1)N1CCN(C(=O)c2ccco2)CC1` (stereo not shown) the value was -15.1%; for `CC1(C(O)(C#CCN2CCCCC2)c2ccccc2)CCCC1.Cl` (stereo not shown), -45.1%. To `CCOc1ccc2nc(C)cc(Nc3ccc4c(c3)OCCO4)c2c1.Cl` belongs -72.4%; to `C#CCNc1ccc(C(=O)OCC)cc1`, 11.8%; to `COc1ccc(CCNc2cc(C)[nH]c(=O)c2)cc1OC`, 29.6%.
